Reference: article PMC4336329 (PLoS ONE, 2015)
The whole screen tested about 310,000 compounds, of which about 2,200 (0.71%) showed an effect of 50% or more. Effects have a minus sign here. The list shows a part of the results.

Each molecule was assayed against human ether-à-go-go-related gene (hERG) potassium channel (human, UniProt Q12809) (assay: primary screen, population patch clamp on CHO cells stably expressing hERG).
Chain of human ether-à-go-go-related gene (hERG) potassium channel (Q12809 whole entry, looked up): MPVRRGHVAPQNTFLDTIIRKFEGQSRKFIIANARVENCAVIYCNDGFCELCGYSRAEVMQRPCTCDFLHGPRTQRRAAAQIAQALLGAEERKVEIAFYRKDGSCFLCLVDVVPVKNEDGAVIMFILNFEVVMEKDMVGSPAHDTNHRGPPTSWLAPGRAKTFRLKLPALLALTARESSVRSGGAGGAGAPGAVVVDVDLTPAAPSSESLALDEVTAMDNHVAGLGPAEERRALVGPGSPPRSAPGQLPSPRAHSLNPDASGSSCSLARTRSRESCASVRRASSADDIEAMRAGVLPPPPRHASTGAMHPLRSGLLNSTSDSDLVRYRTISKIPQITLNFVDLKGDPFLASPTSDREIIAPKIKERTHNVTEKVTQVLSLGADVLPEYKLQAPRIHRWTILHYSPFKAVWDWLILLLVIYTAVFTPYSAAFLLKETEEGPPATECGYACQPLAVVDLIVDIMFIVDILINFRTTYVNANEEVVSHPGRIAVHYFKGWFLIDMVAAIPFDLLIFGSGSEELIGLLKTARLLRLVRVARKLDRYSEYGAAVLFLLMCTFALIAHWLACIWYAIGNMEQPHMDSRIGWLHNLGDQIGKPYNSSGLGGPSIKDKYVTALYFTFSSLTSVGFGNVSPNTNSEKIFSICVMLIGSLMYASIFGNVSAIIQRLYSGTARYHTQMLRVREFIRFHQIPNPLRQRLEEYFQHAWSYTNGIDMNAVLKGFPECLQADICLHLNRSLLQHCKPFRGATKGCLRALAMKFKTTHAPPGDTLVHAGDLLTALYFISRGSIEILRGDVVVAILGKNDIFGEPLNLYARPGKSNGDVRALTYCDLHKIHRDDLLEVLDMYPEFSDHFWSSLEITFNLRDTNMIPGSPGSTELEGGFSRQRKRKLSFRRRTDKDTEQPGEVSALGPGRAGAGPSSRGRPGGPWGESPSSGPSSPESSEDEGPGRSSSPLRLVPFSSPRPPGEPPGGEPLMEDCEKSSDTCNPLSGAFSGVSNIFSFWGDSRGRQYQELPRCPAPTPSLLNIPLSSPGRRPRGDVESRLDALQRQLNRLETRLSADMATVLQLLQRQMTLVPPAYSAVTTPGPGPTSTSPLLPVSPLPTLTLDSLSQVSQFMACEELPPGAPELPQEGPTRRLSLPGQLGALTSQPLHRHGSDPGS

| SMILES | hERG current change (%, negative = inhibition) at 1uM [%] |
| --- | --- |
| COCCn1c(SCC(=O)Nc2ccccc2F)nnc1-c1ccoc1C | 10.2 |
| Cc1ccc(C(=O)N2CCN(c3ccc(Cl)cc3)CC2)cc1 | 2.22 |
| COCCNC(=O)Cn1ccc2cc(S(=O)(=O)N3CCCCCC3)ccc21 | 17.4 |
| CCN(CC)S(=O)(=O)c1ccc(N/N=C/c2cc(OC)ccc2O)nc1 | 14 |
| CC(Sc1ncnc2c1cnn2-c1ccccc1)C(=O)NCC1CCCO1 (stereo not drawn) | 5.58 |
| CC(=O)N1CCn2c3c(c(=O)c4cc(C)ccc42)CCC31 (stereo not drawn) | 6.39 |
| Cc1cc(C)cc(NC(=O)c2cccn2-c2ncc(C(F)(F)F)cc2Cl)c1 | -3.93 |
| Cc1ccc(S(=O)(=O)Oc2cccc(/C=N/n3cnnc3)c2)cc1 | -11.8 |
| CCc1nnc(NC(=O)c2cc3c(s2)CCCCC3)s1 | 35.8 |
| CCC(=O)c1c[nH]c(C(=O)NCCCn2ccnc2)c1 | 9.63 |
| CCN1C(=O)C(CC(=O)Nc2ccc(C)cc2C)Nc2cc(S(=O)(=O)N(C)C)ccc21 (stereo not drawn) | -12.2 |
| O=C(CSCc1ccccc1)NCCCN1CCOCC1 | 12.8 |
| CCn1nc(C)c(NC(=O)c2ccc(Cl)cc2)c1C | 15.8 |
| CS(=O)(=O)Nc1cccc(S(=O)(=O)N2CCN(C(=O)c3ccccc3)CC2)c1 | 9.36 |
| O=C(NCc1ccco1)C1c2ccccc2Oc2ccccc21 | 15.4 |
| COc1ccc(Nc2cc(C(=O)NCCCN3CCOCC3)c3ccccc3n2)cc1OC | 12.4 |
| O=C(CSc1ncnc2c1oc1ccccc12)Nc1ccccc1C(F)(F)F | 14.1 |
| CCc1ccc2c(c1)C1(SC(NC(C)=O)=NN1C(C)=O)C(=O)N2C(C)C (stereo not drawn) | 10.4 |
| C=CCNCCCOc1ccc(C)cc1Br.Cl | 7.37 |
| N#CCCn1cc(C=O)c(-c2cccs2)n1 | 4.74 |
| COC(=O)c1ccc(Cn2cc(Cl)cn2)o1 | 20.5 |
| Cc1ccc(C)c(NS(=O)(=O)c2cc(C(=O)Nc3cccc(N(C)S(C)(=O)=O)c3)ccc2C)c1 | -3.44 |

| SMILES | hERG current change (%, negative = inhibition) at 1uM [%] |
| --- | --- |
| CCOC(=O)N1CCN(CC(=O)Nc2cc3c(cc2C(C)=O)OCO3)CC1 | 2.2 |
| Cc1cc2cc(OCC(=O)O)ccc2n1C | 5.61 |
| COc1ccc2cc(S(=O)(=O)N3CCCCC3)ccc2c1S(=O)(=O)N1CCCCC1 | 5.5 |
| O=C(CNC(=O)c1ccc(Br)o1)NNC(=O)c1ccccc1F | 13.3 |
| CC(=O)NCCc1nc2cc(NC(=O)c3ccccc3C)ccc2n1C | 11.4 |
| O=C(COc1ccc2c(c1)CCC2)N1CCN(c2cccc(C(F)(F)F)c2)CC1 | 2.99 |
| CCOC(=O)C1CN(S(=O)(=O)c2ccccc2)CCN1S(=O)(=O)c1ccccc1 (stereo not drawn) | -0.283 |
| O=C(CCc1nc2ccccc2c(=O)[nH]1)Nc1cccc(S(=O)(=O)N2CCCCC2)c1 | 15.3 |
| O=C(CN1C(=O)c2cccc([N+](=O)[O-])c2C1=O)N1CCN(c2ccc(F)cc2)CC1 | 10.6 |
| CCCS(=O)(=O)c1nc(S(=O)(=O)c2ccc(C)cc2)c(NCCCN(C)C)s1 | 7.76 |
| Cc1ccc2nc(CSc3nc(C)cc(C)c3C#N)[nH]c2c1 | 6.27 |
| COc1ccc(-c2c(C)oc3c(CN4CCOCC4)c(O)ccc3c2=O)cc1OC | 0.45 |
| CCC/C=C1/CCCOC(C(=O)NCc2cc(C)n(C)n2)(C(F)(F)F)C1 (stereo not drawn) | 12.3 |
| CCOC(=O)c1c(-c2ccc(Cl)cc2)csc1NC(=O)CNCc1ccco1.O=C(O)C(=O)O | -13.2 |
| C/C=C(/C(=C/C)c1ccc(O)cc1)c1ccc(O)cc1 | 11.9 |
| O=C(c1ccc(N2CCN(C3CC(=O)N(c4ccc(F)cc4)C3=O)CC2)cc1)c1cccnc1 (stereo not drawn) | -19.3 |
| CCOC(=O)c1nsnc1NCCSC(=N)N.I | 5.12 |
| O=C(COc1ccc(C(=O)NCc2cccnc2)cc1)Nc1cccc(C(F)(F)F)c1 | 3.45 |
| Cc1ccccc1C(=O)c1c[nH]c(C(=O)NCc2cccs2)c1 | 10.8 |
| O=C1CC2c3ccccc3C1C1C(=O)N(CCc3ccccc3)C(=O)C21 (stereo not drawn) | 12.4 |
| CCOc1cc(NC(=O)CCl)c(OCC)cc1NC(C)=O | 8.86 |
| CC(=O)c1ccc(N2CCN(C(=O)C3CCN(S(=O)(=O)c4ccc(F)cc4)CC3)CC2)cc1 | -5.59 |

| SMILES | hERG current change (%, negative = inhibition) at 1uM [%] |
| --- | --- |
| CC/C(C)=N/Nc1nc2c(c(=O)[nH]c(=O)n2C)n1Cc1ccccc1 | 9.69 |
| CCOc1cc(CNc2ncnc3nc[nH]c23)ccc1OC | 6.21 |
| Cc1cc(C)cc(N(CC(=O)NCCSCc2ccco2)S(C)(=O)=O)c1 | -2.62 |
| COc1ccccc1N(CC(=O)NCCc1ccccc1)C(=O)CCC(=O)Nc1cc(C)ccn1 | 8.98 |
| O=C(CSC1=N/C(=C/c2ccco2)C(=O)N1c1ccc(OC(F)F)cc1)NC1CCS(=O)(=O)C1 (stereo not drawn) | 14.1 |
| CCN1C(=O)N[C@@H](CCc2ccccc2)[C@@H](C(=O)OC)[C@H]1C | 4.39 |
| CC(=O)c1ccc(OCc2cc(C(=O)N3CCN(c4ccccc4)CC3C)no2)cc1 (stereo not drawn) | 15.1 |
| CCC(C)N(C(=O)COC(=O)CSc1ccc([N+](=O)[O-])cc1)C1CCS(=O)(=O)C1 (stereo not drawn) | 3.45 |
| CSC1=NCCN1C(=O)c1c(-c2c(F)cccc2Cl)noc1C | 6.42 |
| Cc1ccc(N=Cc2cccc(O)c2O)c(C)c1 | -22.6 |
| COc1cc(/C=N/N(c2ccccc2)c2ccccc2)ccc1O | 14.6 |
| CC1CCCCC1NC(=O)CN1C(=O)COc2ccccc21 (stereo not drawn) | 15.1 |
| Cc1ccccc1NC(=O)c1nnn(-c2ccc3c(c2)OCCO3)c1N | 12.1 |
| O=C(CCS(=O)(=O)c1ccc(F)cc1)Nc1ccc(N2CCN(Cc3ccccc3)CC2)cc1 | 6.38 |
| COc1ccc(NC2=NCCC(=O)N2Cc2cccs2)cc1.Cl | 9.24 |
| CCOCCCN(C(=O)c1snc(C(N)=O)c1N)C(C(=O)NCCC(C)C)c1ccc(Cl)cc1 (stereo not drawn) | -8.18 |
| O=C(CNC(=O)c1ccc(Br)cc1)OCc1cc([N+](=O)[O-])cc2c1OCOC2 | 15.4 |
| CCCCN(C)CCNC(=O)c1ccc2c(c1)NC(=O)C(N1CCCCC1)S2 (stereo not drawn) | 5.12 |
| CNC(=O)N(C1=NCCCCC1)c1ccc(Br)cc1 | 14.6 |
| O=C(COC(=O)CCC(=O)c1ccc(Cl)cc1)NCc1ccco1 | 8.1 |
| COc1ccc(CCCc2nnc(SCC(=O)Nc3ccccc3F)o2)cc1 | 11.1 |
| COc1ccc(NS(=O)(=O)c2cccc(NC(=O)NCCCl)c2)cc1 | 10.4 |

| SMILES | hERG current change (%, negative = inhibition) at 1uM [%] |
| --- | --- |
| COc1cccc(/C=C/C(=O)Nc2ccc(C(=O)Nc3cccc(S(N)(=O)=O)c3)cc2)c1OC | 20.3 |
| Cc1cc(NC(=O)COC(=O)C2CCN(S(=O)(=O)c3ccccc3)CC2)c([N+](=O)[O-])cc1C | -18.6 |
| Clc1ccccc1OCc1nnc(-c2ccccc2Br)o1 | 15.5 |
| C/C=C/C(O)c1ccc2ccccc2c1 (stereo not drawn) | 15.7 |
| CCOC(=O)C1C(=O)NC(c2ccccc2)=NC1c1ccc(F)cc1 (stereo not drawn) | 11.9 |
| COc1ccc(NC(=O)Cc2coc3cc(C)c(C(C)C)cc23)cc1S(=O)(=O)N1CCOCC1 | 12.3 |
| CC(=O)Nc1c(O)nc(SCC(=O)Nc2nnc(CC(C)C)s2)[nH]c1=O | 16.2 |
| Cc1ccc(OCc2nnc(NC(=O)c3ccco3)s2)cc1 | 13 |
| CCOC(=O)c1c(O)c2ccccc2n(C)c1=O | 5.52 |
| COc1ccc(C(=O)N2C[C@H]3C[C@@H](C2)c2cccc(=O)n2C3)cc1OC | 11.9 |
| COc1ccc2oc(=O)c(/C(C)=N/NC(=O)c3ccncc3)cc2c1 | -1.21 |
| CC(OCCN1CCCC1)(c1ccc(F)cc1)c1ccc(F)cc1.Cl | -23.6 |
| Cc1nn2c(NCCN(C)C)c3c(nc2c1-c1ccccc1)CCCC3 | -0.734 |
| COc1cc(NC(=S)N2CCN(CCO)CC2)c(OC)cc1Cl | 9.26 |
| Cc1ccccc1S(=O)(=O)Oc1ccccc1C(=O)Oc1ccccc1 | 3.47 |
| O=c1cc(-c2ccccc2)c2cc(Cl)c(O)c(CN3CCOCC3)c2o1 | 0.0878 |
| c1ccc2oc(-c3ccn[nH]3)cc2c1 | 8.14 |
| Cc1cc(C)c(NC(=O)C2CCCN(S(=O)(=O)c3c(C)noc3/C=C/N(C)C)C2)c(C)c1 (stereo not drawn) | 7.6 |
| Nc1ccc(-c2nc3ccc(N)cc3s2)cc1 | 4.59 |
| O=C(CN1C(=O)/C(=C\C=C\c2ccccc2)SC1=S)Nc1ccc(F)cc1 | 14.8 |
| Cc1ccccc1NC(=O)Cn1c(O)c(N=NC(=O)c2ccccc2O)c2ccccc21 | 14.1 |
